Converted amounts (≈) assume the structure as drawn. Structures can show the parent of a compound that is named as a salt.
Settings: Figure 5B

Compound	Solubility [µg/mL]
CC(C)N=c1cc2n(-c3ccc(Cl)cc3)c3ccccc3nc-2cc1Nc1ccc(Cl)cc1 [CFZA, Clofazimine aspirin salt]	4.00
CC(C)N=c1cc2n(-c3ccc(Cl)cc3)c3ccccc3nc-2cc1Nc1ccc(Cl)cc1 [CFZG, Clofazimine gallic acid salt]	43.60
CC(C)N=c1cc2n(-c3ccc(Cl)cc3)c3ccccc3nc-2cc1Nc1ccc(Cl)cc1 [CFZH, Clofazimine hydrochloride salt]	7.66
CC(C)N=c1cc2n(-c3ccc(Cl)cc3)c3ccccc3nc-2cc1Nc1ccc(Cl)cc1 [CFZM, Clofazimine methanesulfonate]	18.34
CC(C)N=c1cc2n(-c3ccc(Cl)cc3)c3ccccc3nc-2cc1Nc1ccc(Cl)cc1 [CFZS, Clofazimine salicylates]	0.86 (≈ 1.82 µM)
